# In publication PMC4336329 (PLoS ONE, 2015):
# Hit rate of the full screen: of about 310,000 compounds, about 14,000 (4.5%) showed an effect of 50% or more. The effect is printed as a negative number. The list shows a part of the results.
# Biological target: human ether-à-go-go-related gene (hERG) potassium channel (human, UniProt Q12809)
# Assay: primary screen, population patch clamp on CHO cells stably expressing hERG
# 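Also: peak tail current of the secondary pulse compared with the same well before compound.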
# Sequence of human ether-à-go-go-related gene (hERG) potassium channel (Q12809 whole entry, looked up): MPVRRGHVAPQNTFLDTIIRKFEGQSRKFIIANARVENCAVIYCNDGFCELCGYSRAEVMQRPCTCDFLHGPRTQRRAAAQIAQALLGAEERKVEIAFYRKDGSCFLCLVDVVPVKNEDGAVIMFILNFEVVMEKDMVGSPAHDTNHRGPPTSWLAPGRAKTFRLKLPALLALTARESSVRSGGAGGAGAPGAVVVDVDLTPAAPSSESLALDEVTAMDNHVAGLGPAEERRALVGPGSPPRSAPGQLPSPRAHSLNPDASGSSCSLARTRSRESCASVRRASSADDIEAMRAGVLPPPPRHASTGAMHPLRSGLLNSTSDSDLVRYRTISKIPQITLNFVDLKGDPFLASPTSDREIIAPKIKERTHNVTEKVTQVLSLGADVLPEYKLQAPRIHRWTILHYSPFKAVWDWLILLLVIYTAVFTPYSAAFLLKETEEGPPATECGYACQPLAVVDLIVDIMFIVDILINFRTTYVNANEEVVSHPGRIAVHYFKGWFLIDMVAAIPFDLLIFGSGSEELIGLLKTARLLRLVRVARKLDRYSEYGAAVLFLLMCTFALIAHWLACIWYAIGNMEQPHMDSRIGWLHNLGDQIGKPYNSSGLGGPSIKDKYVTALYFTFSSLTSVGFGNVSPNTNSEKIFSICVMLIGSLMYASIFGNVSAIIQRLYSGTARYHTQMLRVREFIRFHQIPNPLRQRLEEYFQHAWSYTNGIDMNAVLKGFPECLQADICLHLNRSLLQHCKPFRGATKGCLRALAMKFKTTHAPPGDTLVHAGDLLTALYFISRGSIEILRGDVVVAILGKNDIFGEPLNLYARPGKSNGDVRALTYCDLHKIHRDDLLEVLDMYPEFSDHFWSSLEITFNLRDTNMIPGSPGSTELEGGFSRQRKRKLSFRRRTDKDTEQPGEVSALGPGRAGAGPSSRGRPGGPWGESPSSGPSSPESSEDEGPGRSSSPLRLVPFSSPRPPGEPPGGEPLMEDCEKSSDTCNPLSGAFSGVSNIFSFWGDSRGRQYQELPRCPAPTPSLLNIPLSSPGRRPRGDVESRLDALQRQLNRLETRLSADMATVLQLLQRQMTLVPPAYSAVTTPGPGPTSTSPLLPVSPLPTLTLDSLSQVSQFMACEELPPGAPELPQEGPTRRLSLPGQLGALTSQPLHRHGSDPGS
row,SMILES,"hERG current change (%, negative = inhibition) at 10uM [%]"
1,CCn1nc(C(=O)NNC(=O)CCOc2cc(C)ccc2C)c2ccccc2c1=O,-77.6
2,Cc1onc(-c2ccccc2)c1C(=O)NNC(=O)c1ccccc1,-1.54
3,N#C/C(=C/c1ccc(-c2ccc(S(N)(=O)=O)cc2)o1)C(=O)Nc1ccccc1,7.21
4,CC(C)(C)c1ccc(C(=O)NC2CCS(=O)(=O)C2)cc1 (stereo not drawn),-7.82
5,COc1ccc(C(C(=O)NC2CCCC2)N(C(=O)c2ccoc2C)c2ccc(C)c(C)c2)cc1 (stereo not drawn),15.1
6,Cc1nn2cc(-c3ccc(Cl)cc3)cnc2c1Cl,6.09
7,CCCC/C=C/C(NC(=O)c1ccc(C(=O)OC)cc1)c1ccccc1 (stereo not drawn),7.8
8,COCCNC(=O)c1ccc2c(Cl)c3c(nc2c1)CCC3,-30.2
9,O=C(CSc1ncn(-c2ccccc2)n1)Nc1nc2c(s1)CCCC2,-37.2
10,COC(=O)C1=NN(C(C)=O)C2(CC(=O)N(c3cccc(C)c3)C2=O)C1 (stereo not drawn),4.44
11,O=c1cnn([C@@H]2O[C@H](CO)[C@@H](O)[C@H]2O)c(=O)[nH]1,12.7
12,CC(C)C[C@H](NC(=O)c1[nH]cnc1C(=O)N[C@@H](C)C(=O)OCc1ccccc1)C(=O)OC(C)(C)C,9.62
13,O=C(N/N=C/c1ccccc1Cl)c1ccncc1,4.51
14,CC1(C)CC(=O)C/C(=N\NC(=O)C2C3CCCCC32)C1 (stereo not drawn),25.4
15,COCCCNC(=O)c1ccc(-n2nc(C(F)(F)F)cc2-c2cccs2)cc1,-30.6
16,CN1CCN(C(=O)C23CC4CC(C)(CC(C)(C4)C2)C3)CC1.Cl,-26.3
17,CCCCc1nc2n[nH]c(N)c2c2c1CCCC2,-30.3
18,Nc1nnc(SCC(=O)Nc2ccccc2N2CCOCC2)s1,3.88
19,Cc1ccc(OCCC(=O)Nc2ccc(S(=O)(=O)Nc3nccs3)cc2)cc1,4.21
20,Cc1ccc(-c2nc(C(=O)NCCCN(C)C)cc3c2[nH]c2ccccc23)cc1,-27.8
21,O=C(Cc1ccc(-n2c(=O)c3ccccc3n(CC(=O)Nc3ccc(F)cc3F)c2=O)cc1)NCc1ccco1,17.3
22,CN(C)N1C(N)=C(C#N)C(c2cccnc2)C2=C1CC(C)(C)CC2=O (stereo not drawn),-19.4

row,SMILES,"hERG current change (%, negative = inhibition) at 10uM [%]"
1,CC1(C)Cc2c(C#N)c(N3CCN(C(=O)c4ccco4)CC3)nc(Cc3ccccc3)c2CO1,-25.3
2,CC(=O)N=Nc1[nH]c(N)c2ccccc12,18.3
3,CCCS(=O)(=O)N1CCN=C1SCc1ccc(C)cc1,-26.8
4,COc1ccccc1CCC(=O)Nc1ccc2c(c1)CN(Cc1ccc(CO)o1)CC2,-10.1
5,NC(=O)C1CC12c1ccccc1-c1ccccc12 (stereo not drawn),16
6,Cc1ccc(NS(=O)(=O)c2cc(C(=O)N3CCN(C)CC3)ccc2C)cc1,-18.1
7,CCOC(=O)c1ccc(NC(=O)CSc2n[nH]c(-c3ccncc3)n2)cc1,0.37
8,CCOc1ccccc1Nc1ncnc2ccccc12.Cl,-19.1
9,O=c1[nH]c(SCc2ccc(Cl)cc2)nc2ccccc12,3.49
10,CCOc1ccc(-n2c(C)c(C(=O)O)c3cc(OC)ccc32)cc1,21.3
11,Cc1cc(NC(=O)COc2ccccc2)ccc1Cl,-2.25
12,O=C(CSCc1c(Cl)cccc1Cl)NCc1ccco1,4.4
13,COc1ccc2c(C)cc(=O)[nH]c2c1,-6.25
14,O=C(c1cc(COc2c(F)cccc2F)on1)N1CCN(C2CCCCC2)C(=O)C1,-17.5
15,Cc1cc(C)cc(OCCNS(=O)(=O)c2cccs2)c1,26.2
16,NC[C@H]1O[C@H](O[C@H]2[C@H](O)[C@@H](O[C@H]3O[C@H](CO)[C@@H](O)[C@H](N)[C@H]3O)[C@H](N)C[C@@H]2N)[C@H](N)C[C@@H]1O.O=S(=O)(O)O,4.47
17,CSc1cccc(NC(=O)c2cc(S(=O)(=O)N3CCc4ccccc43)cn2C)c1,-12.4
18,COc1ccc(C(=O)NNC(=S)NC2CCCCC2)cc1OC,13.8
19,CN1CCC(N(C)C(=S)Nc2ccc(SC(F)F)cc2)CC1,-56.6
20,CCC(=O)Nc1cccc(-c2ccc(N3CCC(C)CC3)nn2)c1,12.8
21,CC1CN(C(=O)c2nn(C)cc2[N+](=O)[O-])CC(C)O1 (stereo not drawn),6.61
22,COCCCn1c(C)nnc1SCC(=O)Nc1cccc(C)c1,11.2

row,SMILES,"hERG current change (%, negative = inhibition) at 10uM [%]"
1,CCCCCCn1c(=O)c(-c2ccccc2)c(O)c2ccccc21,-30.8
2,C=CCN(c1ccccc1Cl)S(=O)(=O)c1cccc(C(=O)OCC(=O)N(C)C2CCS(=O)(=O)C2)c1 (stereo not drawn),-40.3
3,CC(NC(=O)COC(=O)C1(C)CC1(Cl)Cl)c1ccccc1 (stereo not drawn),-1.66
4,Cc1ccc(-n2nc3c(=O)n(CCCC(=O)NCCc4ccccc4C)nc(C)c3c2C)cc1,-8.75
5,Cc1ccccc1C(=O)N1CCN(c2ccc(NC(=O)c3ccco3)cc2Cl)CC1,-43.2
6,C=CCn1c(=O)[nH]c2cc(C(=O)N3CC=C(c4ccccc4)CC3)ccc2c1=O,2.22
7,Cc1noc(C)c1CCC(=O)N1CCCC(CCC(=O)NCc2ccc(F)c(F)c2)C1 (stereo not drawn),-32
8,Oc1ccc(/C=N/N=C/c2ccc(O)c(O)c2)cc1O,12.5
9,COc1cc(NC(=O)CCCl)cc(-n2cnnn2)c1,5.76
10,CCOC(=O)C1=NN(c2ccc(Cl)cc2)/C(=C/C2=NCCc3cc(OC)c(OC)cc32)S1,8.07
11,CCCCn1c(=O)c(CCC(=O)OCC(=O)NC(C)c2ccccc2)nc2ccccc21 (stereo not drawn),-2.2
12,O=C(c1ccco1)N1CCN(C(=O)C2CC(c3ccc(Cl)cc3)=NO2)CC1 (stereo not drawn),-76.2
13,Cc1ccc(S(=O)(=O)N2[C@@H](c3ccccc3F)C(C(=O)O)=CC[C@H]2c2cccc(Cl)c2)cc1,21.9
14,Cc1nc(-n2nnc3ccccc32)c2c3c(sc2n1)CCCC3,-50.1
15,C/C(=N\Nc1ccc([N+](=O)[O-])cc1)c1ccco1,4.13
16,COCCCNc1nc(-c2ccc(Cl)cc2)nc2ccccc12,-1.64
17,COc1ccc(C2Nc3ccccc3C(=O)N2Cc2ccccc2)cc1CN1CCOCC1 (stereo not drawn),-63.5
18,C/C(=N\NC(=O)C1CC1)c1ccccc1Br,12.9
19,CCCn1c(=O)c(C(=O)Nc2cccc(C)c2)c(O)c2ccccc21,10.2
20,COc1ccc(NC(=O)N2CCN(C(=O)Nc3ccc(OC)cc3)CC2)cc1,6.18
21,Cn1c(SCc2ccccc2Cl)nc2ccccc21,1.78
22,Cc1ccc(-c2ccc(/C=N/N3C(=O)C4C5C=CC(C6CC56)C4C3=O)o2)c([N+](=O)[O-])c1 (stereo not drawn),-12.5

row,SMILES,"hERG current change (%, negative = inhibition) at 10uM [%]"
1,O=C(O)c1ccn(CSc2cc(Cl)ccc2Cl)n1,5.46
2,C=CCN(C(=O)C1CC(=O)N(C2CCCC2)C1)c1nc(-c2ccc(S(C)(=O)=O)cc2)cs1 (stereo not drawn),-47.1
3,CCc1cc(-c2nnc(SCC(=O)NC3CC3)n2C)cs1,3.47
4,CC(C)=CCC/C(C)=C/CC/C(C)=C/CC/C(C)=C/CC1=C(C)C(=O)c2ccccc2C1=O,18.6
5,CCCCOC(=O)c1ccc(NC(=O)c2cnc3n(c2=O)CCS3)cc1,6.32
6,COc1ccc(C(=O)NCCNC(=O)c2cnccn2)cc1OC,14.4
7,CC[C@H](C)C(N)c1cn([C@@H](CC(N)=O)C(=O)N2CCNCC2)nn1 (stereo partly drawn),-10.5
8,O=C(O)CSCC(=O)Nc1ccccn1,7.36
9,Cc1cccc(C(=O)OCC(=O)N2CCCC2=O)c1[N+](=O)[O-],-12.7
10,O=C(O)c1cccc(Nc2nc(Nc3ccccc3)nc(N3CCCC3)n2)c1,28
11,Cc1ccc2c(c1)c1c(n2CC(O)CN2CCCCCC2)CCCC1.Cl (stereo not drawn),-65.6
12,CCOc1ccc(Br)cc1S(=O)(=O)Nc1cccc(S(=O)(=O)NC2=NCCC2)c1,-4.56
13,Fc1ccccc1NC(=S)N1CCN(c2ccccn2)CC1,8.82
14,CC(C)CC(=O)Nc1ccc(C(=O)CN2C(=O)NC3(CCOc4ccccc43)C2=O)cc1 (stereo not drawn),-9.85
15,N#C/C(C(=O)Oc1ccccc1)=C1\C=Cc2ccccc2N1,6.21
16,O=C(N1CCCCCC1)N1CCN(S(=O)(=O)c2ccccc2)CC1,-11.9
17,CCCCCn1c(CCC(=O)Oc2ccccc2OC)nc2c1c(=O)[nH]c(=O)n2CCCC,-8.34
18,COC(=O)c1cc(C(=O)OC)n(Cc2ccc(F)cc2)c1C,-5.66
19,CCCCSc1nc(C(=O)O)cc(=O)[nH]1,-7.8
20,Cc1ccc2nc(SCC(=O)N3CCN(C(=O)c4ccco4)CC3)[nH]c2c1,-35.3
21,COc1ccc(OC)c(C(c2nnnn2Cc2ccccc2)N2CCN(C)CC2)c1.Cl (stereo not drawn),3.17
